Usually IC50 stands for the midpoint of a concentration-inhibition curve.

Each structure is given as a SMILES string.

For the assay, the system named is MLKL phosphorylation, HT29-L23 human colorectal adenocarcinoma cells. The assay can be described thus: cells. To be noted: read-out: pMLKL HCS Cell Assay (IC50, uM).
As to `CCC(O)(C(=O)N1C[C@H](F)[C@H](NC(=O)c2cc(-c3cc(C(F)(F)F)c4c(N)ncnn34)c(F)cc2Cl)C1)C(F)(F)F` (stereo partly drawn) [Example 880, 5-[4-amino-5-(trifluoromethyl)pyrrolo[2,1-f][1,2,4]triazin-7-yl]-2-chloro-4-fluoro-N-[(3R,4S)-4-fluoro-1-[2-hydroxy-2-(trifluoromethyl)butanoyl]pyrrolidin-3-yl]benzamide], the half-inhibitory concentration (IC50) was 0.0074 µM.
In the case of `CC(CCNC(=O)c1cc(-c2cc(C(F)(F)F)c3c(N)ncnn23)cnc1F)c1ccccc1` (stereo not drawn) [Example 271, 5-[4-amino-5-(trifluoromethyl)pyrrolo[2,1-f][1,2,4]triazin-7-yl]-2-fluoro-N-(3-phenylbutyl)pyridine-3-carboxamide] it was 0.026 µM.
`COc1ncc(-c2ccc3c(N)ncnn23)cc1C(=O)N[C@@H]1CN(C(=O)C2CCC(F)(F)CC2)C[C@@H]1F` [Example 158, 5-{4-aminopyrrolo[2,1-f][1,2,4]triazin-7-yl}-N-[(3R,4S)-1-(4,4-difluorocyclohexanecarbonyl)-4-fluoropyrrolidin-3-yl]-2-methoxypyridine-3-carboxamide]: the half-maximal inhibitory concentration (IC50) was 0.253 µM.
With `COc1ncc(-c2cc(CN3CCC(F)(F)CC3)c3c(N)ncnn23)cc1C(=O)N[C@@H]1CN(C(=O)OC2CCC2)C[C@@H]1F` [Example 1509, cyclobutyl (3R,4S)-3-(5-{4-amino-5-[(4,4-difluoropiperidin-1-yl)methyl]pyrrolo[2,1-f][1,2,4]triazin-7-yl}-2-methoxypyridine-3-amido)-4-fluoropyrrolidine-1-carboxylate], the IC50 is 0.0021 µM.
For `COc1ncc(-c2cc(C(F)(F)F)c3c(N)ncnn23)cc1C(=O)NC1CCCN(c2ccccc2)C1` (stereo not drawn) [Example 1694, 5-(4-amino-5-(trifluoromethyl)pyrrolo[2,1-f][1,2,4]triazin-7-yl)-2-methoxy-N-(1-phenylpiperidin-3-yl)nicotinamide], the IC50 is 0.094 µM.
Next, `Cc1ncc(-c2cc(C(F)(F)F)c3c(N)ncnn23)cc1C(=O)N[C@@H]1CN(C(=O)C2CCCCC2)C[C@@H]1C` [Example 21, 5-[4-amino-5-(trifluoromethyl)pyrrolo[2,1-f][1,2,4]triazin-7-yl]-N-[(3S,4S)-1-cyclohexanecarbonyl-4-methylpyrrolidin-3-yl]-2-methylpyridine-3-carboxamide]: 0.015 µM.
`Cc1nc(C)c(-c2cc(C(F)(F)F)c3c(N)ncnn23)cc1C(=O)N[C@@H]1CN(C(=O)c2ccccc2)C[C@@H]1F` [Example 1189, 5-[4-amino-5-(trifluoromethyl)pyrrolo[2,1-f][1,2,4]triazin-7-yl]-N-[(3R,4S)-1-benzoyl-4-fluoropyrrolidin-3-yl]-2,6-dimethylpyridine-3-carboxamide]: the IC50 is 0.027 µM.
With `COc1ccc(OC)c(S(=O)(=O)N2C[C@H](F)[C@H](NC(=O)c3cc(-c4cc(C(F)(F)F)c5c(N)ncnn45)cnc3OC)C2)c1` [Example 1470, 5-[4-amino-5-(trifluoromethyl)pyrrolo[2,1-f][1,2,4]triazin-7-yl]-N-[(3R,4S)-1-(2,5-dimethoxybenzenesulfonyl)-4-fluoropyrrolidin-3-yl]-2-methoxypyridine-3-carboxamide], the concentration for half-maximal inhibition (IC50) came out at 0.287 µM.
Next, `CCOc1ccc(-c2cc(C(F)(F)F)c3c(N)ncnn23)cc1C(=O)N[C@@H]1CN(C(=O)C2CCC(F)(F)C2)C[C@@H]1F` (stereo partly drawn) [Example 1102, 5-[4-amino-5-(trifluoromethyl)pyrrolo[2,1-f][1,2,4]triazin-7-yl]-N-[(3R,4S)-1-(3,3-difluorocyclopentanecarbonyl)-4-fluoropyrrolidin-3-yl]-2-ethoxybenzamide]: 0.019 µM; `Cc1ccc(-c2cc(C(F)(F)F)c3c(N)ncnn23)cc1C(=O)N[C@@H]1CN(C(=O)C2CC(F)C2)C[C@@H]1F` (stereo partly drawn) [Example 997, 5-[4-amino-5-(trifluoromethyl)pyrrolo[2,1-f][1,2,4]triazin-7-yl]-N-[(3R,4S)-4-fluoro-1-(3-fluorocyclobutanecarbonyl)pyrrolidin-3-yl]-2-methylbenzamide]: 0.0014 µM.
`COc1ncc(-c2cc(C(F)(F)F)c3c(N)ncnn23)cc1C(=O)N[C@@H]1CN(C(=O)CC2CCCC2)C[C@@H]1F` [Example 1203, 5-[4-amino-5-(trifluoromethyl)pyrrolo[2,1-f][1,2,4]triazin-7-yl]-N-[(3R,4S)-1-(2-cyclopentylacetyl)-4-fluoropyrrolidin-3-yl]-2-methoxypyridine-3-carboxamide]: the concentration for half-maximal inhibition (IC50) stood at 0.025 µM.
In the case of `Cc1cc(F)c(-c2cc(C(F)(F)F)c3c(N)ncnn23)cc1C(=O)N[C@@H]1CN(C(=O)CC(F)(F)F)C[C@@H]1F` [Example 796, 5-[4-amino-5-(trifluoromethyl)pyrrolo[2,1-f][1,2,4]triazin-7-yl]-4-fluoro-N-[(3R,4S)-4-fluoro-1-(3,3,3-trifluoropropanoyl)pyrrolidin-3-yl]-2-methylbenzamide] it was 0.0035 µM; in that of `COc1ncc(-c2cc(C(F)(F)F)c3c(N)ncnn23)cc1C(=O)NC1CN(C(C)c2cccc(OC(F)(F)F)c2)C[C@@H]1F` (stereo partly drawn) [Example 1394, 5-[4-amino-5-(trifluoromethyl)-pyrrolo[2,1-f][1,2,4]triazin-7-yl]-N-[(3R,4S)-4-fluoro-1-{1-[3-(trifluoromethoxy)phenyl]-ethyl}pyrrolidin-3-yl]-2-methoxypyridine-3-carbox-amide], 0.3 µM; in that of `COc1ncc(-c2cc(C(F)(F)F)c3c(N)ncnn23)cc1C(=O)NC1CN(C(=O)C2CC2(F)F)CCC1F` (stereo not drawn) [Example 1579, 5-[4-amino-5-(trifluoromethyl)pyrrolo[2,1-f][1,2,4]triazin-7-yl]-N-[1-(2,2-difluorocyclopropanecarbonyl)-4-fluoropiperidin-3-yl]-2-methoxypyridine-3-carboxamide], 0.233 µM.
Next, `Cc1c(F)cc(-c2cc(C(F)(F)F)c3c(N)ncnn23)cc1C(=O)N[C@@H]1CN(C(=O)C2CCC(F)(F)C2)C[C@@H]1F` (stereo partly drawn) [Example 679, 5-[4-amino-5-(trifluoromethyl)pyrrolo[2,1-f][1,2,4]triazin-7-yl]-N-[(3R,4S)-1-(3,3-difluorocyclopentanecarbonyl)-4-fluoropyrrolidin-3-yl]-3-fluoro-2-methylbenzamide]: 0.0027 µM.
Next, `COc1cc(C(=O)N[C@@H]2CN(C(=O)C3CCC(F)(F)C3)C[C@@H]2F)cc(-c2cc(C(F)(F)F)c3c(N)ncnn23)c1` (stereo partly drawn) [Example 587, 3-[4-amino-5-(trifluoromethyl)pyrrolo[2,1-f][1,2,4]triazin-7-yl]-N-[(3R,4S)-1-(3,3-difluorocyclopentanecarbonyl)-4-fluoropyrrolidin-3-yl]-5-methoxybenzamide]: 0.022 µM; `Nc1ncnn2c(-c3ccc(Cl)c(C(=O)N[C@@H]4CN(C(=O)C5CCC(F)(F)CC5)C[C@@H]4F)c3)cc(CN3CCC(C(F)(F)F)CC3)c12` [Example 1160, 5-(4-amino-5-{[4-(trifluoromethyl)piperidin-1-yl]methyl}pyrrolo[2,1-f][1,2,4]triazin-7-yl)-2-chloro-N-[(3R,4S)-1-(4,4-difluorocyclohexanecarbonyl)-4-fluoropyrrolidin-3-yl]benzamide]: 0.01 µM; `CCc1ccc(-c2cc(C(F)(F)F)c3c(N)ncnn23)cc1C(=O)N[C@@H]1CN(C(=O)CC(C)C)C[C@@H]1F` [Example 978, 5-[4-amino-5-(trifluoromethyl)pyrrolo[2,1-f][1,2,4]triazin-7-yl]-2-ethyl-N-[(3R,4S)-4-fluoro-1-(3-methylbutanoyl)pyrrolidin-3-yl]benzamide]: 0.0058 µM.
`Nc1ncnn2c(-c3ccc(Cl)c(C(=O)N[C@@H]4CN(C(=O)C5CC5(F)F)C[C@@H]4F)c3)cc(C(F)(F)F)c12` (stereo partly drawn) [Example 937, 5-[4-amino-5-(trifluoromethyl)pyrrolo[2,1-f][1,2,4]triazin-7-yl]-2-chloro-N-[(3R,4S)-1-(2,2-difluorocyclopropanecarbonyl)-4-fluoropyrrolidin-3-yl]benzamide]: the IC50 worked out at 0.0045 µM.
In the case of `COc1ncc(-c2cc(C(F)(F)F)c3c(N)ncnn23)cc1C(=O)N[C@@H]1CN(C(=O)C(C)(C)c2ccccc2)C[C@@H]1F` [Example 344, 5-[4-amino-5-(trifluoromethyl)pyrrolo[2,1-f][1,2,4]triazin-7-yl]-N-[(3R,4S)-4-fluoro-1-(2-methyl-2-phenylpropanoyl)pyrrolidin-3-yl]-2-methoxypyridine-3-carboxamide] it was 0.191 µM; in that of `COc1ncc(-c2cc(C(F)(F)F)c3c(N)ncnn23)cc1C(=O)NC1CN(Cc2cscn2)CC1F` (racemic) [Example 206, 5-[4-amino-5-(trifluoromethyl)pyrrolo[2,1-f][1,2,4]triazin-7-yl]-N-{4-fluoro-1-[(1,3-thiazol-4-yl)methyl]pyrrolidin-3-yl}-2-methoxypyridine-3-carboxamide], 0.021 µM; in that of `COc1ncc(-c2cc(C(F)(F)F)c3c(N)ncnn23)cc1C(=O)N[C@H]1C[C@@H](COCc2ccccc2)N(C(=O)C2CC(F)(F)C2)C1` [Example 1701, 5-(4-amino-5-(trifluoromethyl)pyrrolo[2,1-f][1,2,4]triazin-7-yl)-N-((35,55)-5-((benzyloxy)methyl)-1-(3,3-difluorocyclobutane-1-carbonyl)pyrrolidin-3-yl)-2-methoxynicotinamide], 0.377 µM.
In the case of `COc1cc(-c2cc(C(F)(F)F)c3c(N)ncnn23)cc(C(=O)N[C@@H]2CN(C(=O)CC(O)(C(F)(F)F)C(F)(F)F)C[C@@H]2F)c1OC` [Example 593, 5-[4-amino-5-(trifluoromethyl)pyrrolo[2,1-f][1,2,4]triazin-7-yl]-N-[(3R,4S)-4-fluoro-1-[4,4,4-trifluoro-3-hydroxy-3-(trifluoromethyl)butanoyl]pyrrolidin-3-yl]-2,3-dimethoxybenzamide] it was 0.039 µM; in that of `COc1ccc(-c2cc(C(F)(F)F)c3c(N)ncnn23)cc1C(=O)NCCC(O)c1ccccc1` (racemic) [Example 161, 5-[4-amino-5-(trifluoromethyl)pyrrolo[2,1-f][1,2,4]triazin-7-yl]-N-(3-hydroxy-3-phenylpropyl)-2-methoxybenzamide], 0.043 µM.

These data come from patent US11618753B2 (priority 2018, dated 2023).
